# Source: PubChem BioAssay AID485294 (National Center for Advancing Translational Sciences (NCATS), 2010)
# Where “and” joins values, the source holds several entries; their conditions need not be identical. Equal values may be shown once. Out of some 370,000 compounds screened, about 150 (0.041%) were called active. This list was built around the results that the source calls inconclusive (neither active nor inactive); the mix of calls is not that of the screen. The call rests on the fitted dose curve; in most records, active means well fitted inhibition curve with a large enough effect; inconclusive means small, poorly fitted or top-dose-only effect; inactive means flat fitted curve, though single readings scatter. Potencies beside an inconclusive call are fits to weak or partial responses and may not hold up.
# Target: Beta-lactamase (Escherichia coli (strain K12)) (UniProt P00811)
# Assay: qHTS Inhibitors of AmpC Beta-Lactamase (assay with detergent); further: nearly all actives have a fitted effect of over 25% in size
# Settings: AmpC hydrolysis of nitrocefin, absorbance 480 nm, 0.01% Triton; series mostly up to 114 µM
# Summary of the method: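 AmpC (5.3 nM in the dispensed reagent) in 20 mM phosphate pH 7.0 with 0.01% (detergent screen) or 0.0001% Triton X-100 was preincubated with compounds for 15 min at room temperature. Nitrocefin was then added from an 800 uM solution, and hydrolysis was followed at 480 nm.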
# Potency means the concentration at half of the fitted maximal effect; tags describe the fitted curve by direction and shape.
# UniProt P00811, sequence (P00811 whole entry, looked up): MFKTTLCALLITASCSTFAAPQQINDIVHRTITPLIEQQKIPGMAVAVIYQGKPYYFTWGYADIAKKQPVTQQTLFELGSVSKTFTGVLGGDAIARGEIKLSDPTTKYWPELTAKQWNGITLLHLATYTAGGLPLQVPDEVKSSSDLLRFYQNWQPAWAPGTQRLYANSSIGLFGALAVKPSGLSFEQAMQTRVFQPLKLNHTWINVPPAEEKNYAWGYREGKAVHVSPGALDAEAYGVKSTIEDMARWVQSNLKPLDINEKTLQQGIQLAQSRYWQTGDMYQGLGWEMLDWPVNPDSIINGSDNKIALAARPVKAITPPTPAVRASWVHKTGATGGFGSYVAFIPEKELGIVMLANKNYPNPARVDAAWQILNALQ
row,SMILES,Potency
1,CC(C)C[C@H]1CN=C(Nc2ccccc2)N1CC1CCCC1,"inconclusive: 1 µM [inhibitor, partial curve]"
2,Cc1ccc(C(=O)Nc2cccc(C(F)(F)F)c2)cc1Nc1ncnc2nc[nH]c12,inactive
3,Cc1onc(-c2ccccc2)c1C(=O)Nc1ccncc1,"inconclusive: 0.631 µM [inhibitor, full curve, poor fit]"
4,Clc1ccc(Cn2c(-c3cccnc3Cl)nc3ccccc32)cc1,"inconclusive: 2 µM [inhibitor, partial curve, poor fit]"
5,CCOC(=O)Cc1csc(NC(=O)CN2C(=O)c3ccccc3S2(=O)=O)n1,"inconclusive: 1.12 µM [inhibitor, full curve]"
6,Cc1onc(-c2ccccc2)c1C(=O)N1CC(C)OC(C)C1 (configuration not stated),inactive
7,O=c1cccc(-c2ccc(Br)cc2)o1,"inconclusive: 1.78 µM [inhibitor, full curve, poor fit]"
8,CCOCCCN(C)C1CCN(C(=O)c2oc3ccccc3c2NC(=O)COc2cccc(C)c2)CC1,"inconclusive: 10 µM [inhibitor, full curve, poor fit]"
9,O=C(Nc1ccc(Cl)cc1)c1cc2c(-c3ccccc3)nn(-c3ccccc3)c2s1,inactive
10,Cc1ccc(-n2c3nc(=O)[nH]c(=O)c-3cc3c(C)nn(-c4ccccc4)c32)c(C)c1,"inconclusive: 70.8 µM [inhibitor, partial curve, poor fit]"
11,Cn1nc(C(=O)Nc2nc(-c3ccccn3)cs2)c2ccccc2c1=O,"inconclusive: 1.58 µM [inhibitor, full curve, poor fit]"
12,CC1(C)CN=C(N2CCN(C3=NCC(C)(C)S3)CC2)S1,"inconclusive: 56.2 µM [inhibitor, partial curve, poor fit]"
13,COc1cc(NC(=S)NCCO)c(OC)cc1Cl,"inconclusive: 2.51 µM [inhibitor, partial curve, poor fit]"
14,CCCCCCCC(=O)N/N=C/c1ccco1,"inconclusive: 35.5 µM [inhibitor, full curve, poor fit]"
15,CCCCC(CC)CN=C(N)NC(N)=NCCCCCCN=C(N)NC(N)=NCC(CC)CCCC (configuration not stated),"inconclusive: 7.08 µM [inhibitor, full curve, poor fit]"
16,CCCCC(=O)N/N=C/c1cc([N+](=O)[O-])ccc1N1CCOCC1,"inconclusive: 112 µM [inhibitor, partial curve, poor fit]"
17,COC(=O)CCC(=O)OC1(C)C(=O)C=C2C=C(C3CC3)N(CCc3c[nH]c4ccccc34)C=C2C1=O (configuration not stated),inactive
18,COCCNC(=O)C(c1ccccc1F)N(C(=O)C(=O)NC1CCCC1)C1CCCCC1 (configuration not stated),inactive
19,Cc1ccccc1C(=O)NNC(=O)C(=O)Nc1cccc(Cl)c1C,"inconclusive: 0.794 µM [inhibitor, full curve]"
20,CC(=O)N1CCN(S(=O)(=O)c2ccc(C)cc2)C1C (configuration not stated),"inconclusive: 12.6 µM [inhibitor, partial curve, poor fit]"
21,CCN(CC(=O)Nc1ccc(OC)cc1)C(=O)c1cc(S(=O)(=O)N2CCOCC2)ccc1N1CCCC1,inactive
22,O=C(/C=C/c1cccs1)Nc1ccc([N+](=O)[O-])cc1,inactive
23,Cc1cccc(-c2nc(C(N)=O)c3c(n2)n(-c2ccc4c(c2)OCO4)c(=O)n3C)c1,inactive

row,SMILES,Potency
1,COc1ccc2oc(C(=O)N3CCN(C(=O)c4ccco4)CC3)c(C)c2c1,inactive
2,COc1ccccc1N1CCN(C(=O)C2CCCN(S(=O)(=O)c3ccc(C)cc3)C2)CC1 (configuration not stated),"inconclusive: 0.631 µM [inhibitor, full curve, poor fit]"
3,COC(=O)c1ccc(OC(=O)c2ccco2)cc1,inactive
4,O=C(CSc1nc2ccccc2[nH]1)N=Nc1c(O)[nH]c2ccccc12,"inconclusive: 4.47 µM [inhibitor, full curve, poor fit]"
5,COc1cccc(CNC(=O)CCCn2nc(C)c3c(C)n(-c4ccc(C)cc4)nc3c2=O)c1OC,"inconclusive: 1.41 µM [inhibitor, partial curve, poor fit]"
6,CCN(CC)CCNC(=O)c1ccc(-n2c(-c3ccccc3)cc3c2CCCC3)cc1,inactive
7,O=C(N/N=C/c1ccc(N2CCOCC2)cc1)c1ccncc1,inactive
8,Cc1ccccc1NS(=O)(=O)c1cc(C(=O)NCc2ccco2)ccc1C,"inconclusive: 89.1 µM [inhibitor, single point]"
9,CCc1cccc(OCC(=O)N(C)CC(=O)Nc2cccc(F)c2)c1,"inconclusive: 44.7 µM [inhibitor, partial curve, poor fit]"
10,CCOC(=O)c1c(-c2ccc(-c3ccccc3)cc2)csc1NC(=O)CCN1CCOCC1,inactive
11,O=[N+]([O-])c1ccc(NCc2ccc3c(c2)OCO3)cc1,inactive
12,O=C(Cn1c(C(=O)N2CCN(C3CCCC3)CC2)cc2sccc21)c1ccccc1,"inconclusive: 10 µM [inhibitor, full curve, poor fit]"
13,CCc1ccc(CN(C(=O)c2cc(=O)c3ccc(C)cc3o2)C2CCS(=O)(=O)C2)cc1 (configuration not stated),inactive
14,Cn1c(SCC(=O)NC2CC2)nnc1-c1ccco1,"inconclusive: 89.1 µM [inhibitor, partial curve]"
15,CCOC(=O)C1CCCN(C(=O)Cc2ccc(C)cc2)C1 (configuration not stated),"inconclusive: 0.708 µM [inhibitor, full curve, poor fit]"
16,O=C(Nc1ccc2c(c1)nc1n2CCN(Cc2ccccc2)C1)c1cccs1,inactive
17,COc1ccc(C(=O)N/N=C(\C)c2ccccn2)cc1OC,"inconclusive: 0.794 µM [inhibitor, full curve]"
18,CCc1nnc(NC(=O)C2CCN(c3nccc(C)n3)CC2)s1,"inconclusive: 2.82 µM [inhibitor, full curve]"
19,CCOc1nc2ccccc2cc1/C=C/C(=O)O,"inconclusive: 10 µM [inhibitor, full curve, poor fit]"
20,CC1CCc2c(sc(NC(=O)c3cc(-c4ccc(F)cc4)on3)c2C(N)=O)C1 (configuration not stated),inactive
21,CC(C)[C@H](NC(=O)C1CC(=O)N(c2ccc3c(c2)OCO3)C1)C(=O)NC1CCCC1 (some centres not stated),"inconclusive: 0.631 µM [inhibitor, full curve, poor fit]"
22,Cc1cc(-c2ccccc2)nn1-c1nc2c(c(=O)[nH]c(=O)n2C)n1C,"inconclusive: 1.12 µM [inhibitor, full curve, poor fit]"
23,CCN(CC)C(=O)COc1coc(CN2CCN(c3cccc(Cl)c3)CC2)cc1=O,inactive

row,SMILES,Potency
1,O=C(NCc1ccccc1)C12CN(Cc3ccccc3)CC1C(c1cccc([N+](=O)[O-])c1)=NO2 (configuration not stated),"inconclusive: 0.631 µM [inhibitor, full curve, poor fit]"
2,COc1ccc2oc(-c3ccc(C)c(NC(=O)c4ccc(N5CCOCC5)c([N+](=O)[O-])c4)c3)nc2c1,inactive
3,CCOC(=O)c1ccc(Nc2ncnc3ccc(C)cc23)cc1,"inconclusive: 28.2 µM [inhibitor, full curve, poor fit]"
4,Cc1cc([N+](=O)[O-])nn1CCCC(=O)Nc1cc(Oc2ccccc2)cc([N+](=O)[O-])c1,"inconclusive: 39.8 µM [inhibitor, single point]"
5,CC1(C)Cc2c(c(N3CCOCC3)nc3sc4c(NCc5ccccc5)nnnc4c23)CS1,"inconclusive: 39.8 µM [inhibitor, single point]"
6,O=C(Oc1ccccc1)c1cc2ccccc2o1,"inconclusive: 56.2 µM [inhibitor, partial curve]"
7,COc1ccccc1CCC(=O)Nc1ccc(C)cc1Cl,"inconclusive: 89.1 µM [inhibitor, partial curve]"
8,CCOC(=O)C1CCCN(C(=O)c2ccc(C(=O)c3ccccc3)cc2)C1 (configuration not stated),"inconclusive: 0.631 µM [inhibitor, full curve, poor fit]"
9,Cc1ccc(S(=O)(=O)N2c3ccccc3NC(=O)C2CC(=O)Nc2ccccc2)cc1 (configuration not stated),inactive
10,COc1cccc(-c2ccc3ncnc(NCc4cccc(C)c4)c3c2)c1,"inactive and inconclusive: 1.12 µM [inhibitor, full curve, poor fit]"
11,Cc1ccc(S(=O)(=O)NC2CCCCCCC2)cc1,inactive
12,CCCCOc1ccc(Cl)cc1CSc1n[nH]c(C)n1,"inconclusive: 25.1 µM [inhibitor, full curve, poor fit]"
13,CCOc1cccc(C(=O)Nc2cc(-c3nn4c(C)nnc4s3)ccc2C)c1,"inconclusive: 1.41 µM [inhibitor, full curve, poor fit]"
14,CCOC(=O)COc1ccc(S(=O)(=O)N2CCN(c3ccc(F)cc3)CC2)cc1,"inconclusive: 4.47 µM [inhibitor, partial curve]"
15,CCc1noc(C)c1C(=O)Nc1nc(-c2ccc(Cl)cc2Cl)c(C)s1,"inconclusive: 44.7 µM [inhibitor, partial curve, poor fit]"
16,CCOc1ccccc1C(=O)N(Cc1cccs1)C1CCS(=O)(=O)C1 (configuration not stated),"inconclusive: 5.01 µM [inhibitor, full curve, poor fit]"
17,O=C1C(=O)N(CCCN2CCOCC2)C(c2cccs2)/C1=C(/O)c1ccc2c(c1)OCO2 (configuration not stated),"inconclusive: 89.1 µM [inhibitor, single point]"
18,CCOc1ccc(C(=O)NC(=S)Nc2cccnc2)cc1,inactive
19,O=C(Nc1cccc(F)c1)c1cccnc1,"inconclusive: 25.1 µM [inhibitor, partial curve]"
20,COc1ccccc1NC(=O)C1=C(C)Nc2nc(-c3cccs3)nn2C1c1cccnc1 (configuration not stated),"inconclusive: 0.794 µM [inhibitor, full curve]"
21,COc1ccccc1N1C(=O)S/C(=C\c2cccs2)C1=O,"inconclusive: 89.1 µM [inhibitor, single point]"
